# Laboratory results: the supplement of paper PMC8728848
# This is one part of the list.
# B1: FimA-N3 (Actinomyces oris) (protein)
# chain: MHHHHHHSSGVDLGTENLYFQSNAGLQGAQFQLYKAKNAYANTCSNEKEGAPIAINGQTTLTTDAQGAIDIKGLFISDSIDGADRDNQVNAMERCYVLVETKAPAGYVLPAGNGAATPVKVKAGEETTDN
# Assays:
# Assay in all cases: glycan array binding signal (z-score within array); higher = stronger binding
# Settings in all cases: glycan notation: IUPAC condensed, linker removed
# [1] = molecular target: Gal(b1-4)GlcNAc(b1-3)Gal(b1-4)GlcNAc(b1-2)[Gal(b1-4)GlcNAc(b1-3)Gal(b1-4)GlcNAc(b1-6)]Man(a1-6)[Gal(b1-4)GlcNAc(b1-3)Gal(b1-4)GlcNAc(b1-2)Man(a1-3)]Man(b1-4)GlcNAc(b1-4)GlcNAc
# Outline: (§1)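 Negative Z-scores can be read as non-binding. The Z-score is calculated within each array and then averaged across arrays of one protein sequence at different concentrations or buffers and across linkers. Arrays, 3228 in all, were curated from the Consortium for Functional Glycomics database and kept only where the protein sequence was available.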
# [2] = molecular target: Gal(b1-4)GlcNAc(b1-3)Gal(b1-4)GlcNAc(b1-2)[Gal(b1-4)GlcNAc(b1-3)Gal(b1-4)GlcNAc(b1-6)]Man(a1-6)[Gal(b1-4)GlcNAc(b1-3)Gal(b1-4)GlcNAc(b1-2)Man(a1-3)]Man(b1-4)GlcNAc(b1-4)[Fuc(a1-6)]GlcNAc
# Outline: as §1
# [3] = molecular target: Gal(b1-4)GlcNAc(b1-3)Gal(b1-4)GlcNAc(b1-3)Gal(b1-4)GlcNAc
# Outline: as §1
# [4] = molecular target: Gal(b1-4)GlcNAc(b1-3)Gal(b1-4)GlcNAc(b1-3)Gal(b1-4)GlcNAc(b1-2)Man(a1-3)[Gal(b1-4)GlcNAc(b1-3)Gal(b1-4)GlcNAc(b1-3)Gal(b1-4)GlcNAc(b1-2)Man(a1-6)]Man(b1-4)GlcNAc(b1-4)GlcNAc
# Outline: as §1
# [5] = molecular target: Gal(b1-4)GlcNAc(b1-3)Gal(b1-4)GlcNAc(b1-3)Gal(b1-4)GlcNAc(b1-2)Man(a1-3)[Gal(b1-4)GlcNAc(b1-3)Gal(b1-4)GlcNAc(b1-3)Gal(b1-4)GlcNAc(b1-2)Man(a1-6)]Man(b1-4)GlcNAc(b1-4)[Fuc(a1-6)]GlcNAc
# Outline: as §1
# [6] = molecular target: Gal(b1-4)GlcNAc(b1-3)Gal(b1-4)GlcNAc(b1-3)Gal(b1-4)GlcNAc(b1-2)[Gal(b1-4)GlcNAc(b1-3)Gal(b1-4)GlcNAc(b1-3)Gal(b1-4)GlcNAc(b1-6)]Man(a1-6)[Gal(b1-4)GlcNAc(b1-3)Gal(b1-4)GlcNAc(b1-3)Gal(b1-4)GlcNAc(b1-2)Man(a1-3)]Man(b1-4)GlcNAc(b1-4)[Fuc(a1-6)]GlcNAc
# Outline: as §1
# [7] = molecular target: Gal(b1-4)GlcNAc(b1-3)Gal(b1-4)GlcNAc(b1-3)Gal(b1-4)GlcNAc(b1-3)Gal(b1-4)GlcNAc(b1-2)Man(a1-3)[Gal(b1-4)GlcNAc(b1-3)Gal(b1-4)GlcNAc(b1-3)Gal(b1-4)GlcNAc(b1-3)Gal(b1-4)GlcNAc(b1-2)Man(a1-6)]Man(b1-4)GlcNAc(b1-4)GlcNAc
# Outline: as §1
# [8] = molecular target: Gal(b1-4)GlcNAc(b1-3)Gal(b1-4)GlcNAc(b1-3)Gal(b1-4)GlcNAc(b1-3)Gal(b1-4)GlcNAc(b1-2)Man(a1-3)[Gal(b1-4)GlcNAc(b1-3)Gal(b1-4)GlcNAc(b1-3)Gal(b1-4)GlcNAc(b1-3)Gal(b1-4)GlcNAc(b1-2)Man(a1-6)]Man(b1-4)GlcNAc(b1-4)[Fuc(a1-6)]GlcNAc
# Outline: as §1
# [9] = molecular target: Gal(b1-4)GlcNAc(b1-3)Gal(b1-4)GlcNAc(b1-3)Gal(b1-4)GlcNAc(b1-3)Gal(b1-4)GlcNAc(b1-2)[Gal(b1-4)GlcNAc(b1-3)Gal(b1-4)GlcNAc(b1-3)Gal(b1-4)GlcNAc(b1-3)Gal(b1-4)GlcNAc(b1-6)]Man(a1-6)[Gal(b1-4)GlcNAc(b1-3)Gal(b1-4)GlcNAc(b1-3)Gal(b1-4)GlcNAc(b1-3)Gal(b1-4)GlcNAc(b1-2)Man(a1-3)]Man(b1-4)GlcNAc(b1-4)[Fuc(a1-6)]GlcNAc
# Outline: as §1
# [10] = molecular target: Gal(b1-4)GlcNAc(b1-3)Gal(b1-4)GlcNAc(b1-3)Gal(b1-4)GlcNAc(b1-3)Gal(b1-4)GlcNAc(b1-3)Gal(b1-4)GlcNAc(b1-2)Man(a1-3)[Gal(b1-4)GlcNAc(b1-3)Gal(b1-4)GlcNAc(b1-3)Gal(b1-4)GlcNAc(b1-3)Gal(b1-4)GlcNAc(b1-3)Gal(b1-4)GlcNAc(b1-2)Man(a1-6)]Man(b1-4)GlcNAc(b1-4)GlcNAc
# Outline: as §1
# [11] = molecular target: Gal(b1-4)GlcNAc(b1-3)Gal(b1-4)GlcNAc(b1-3)Gal(b1-4)GlcNAc(b1-3)Gal(b1-4)GlcNAc(b1-3)Gal(b1-4)GlcNAc(b1-2)Man(a1-3)[Gal(b1-4)GlcNAc(b1-3)Gal(b1-4)GlcNAc(b1-3)Gal(b1-4)GlcNAc(b1-3)Gal(b1-4)GlcNAc(b1-3)Gal(b1-4)GlcNAc(b1-2)Man(a1-6)]Man(b1-4)GlcNAc(b1-4)[Fuc(a1-6)]GlcNAc
# Outline: as §1
# [12] = molecular target: Gal(b1-4)GlcNAc(b1-3)Gal(b1-4)GlcNAc(b1-3)Gal(b1-4)GlcNAc(b1-3)Gal(b1-4)GlcNAc(b1-3)Gal(b1-4)GlcNAc(b1-2)[Gal(b1-4)GlcNAc(b1-3)Gal(b1-4)GlcNAc(b1-3)Gal(b1-4)GlcNAc(b1-3)Gal(b1-4)GlcNAc(b1-3)Gal(b1-4)GlcNAc(b1-6)]Man(a1-6)[Gal(b1-4)GlcNAc(b1-3)Gal(b1-4)GlcNAc(b1-3)Gal(b1-4)GlcNAc(b1-3)Gal(b1-4)GlcNAc(b1-3)Gal(b1-4)GlcNAc(b1-2)Man(a1-3)]Man(b1-4)GlcNAc(b1-4)[Fuc(a1-6)]GlcNAc
# Outline: as §1
# [13] = molecular target: Gal(b1-4)GlcNAc(b1-3)Gal(b1-4)GlcNAc(b1-3)Gal(b1-4)GlcNAc(b1-3)Gal(b1-4)GlcNAc(b1-3)Gal(b1-4)GlcNAc(b1-3)Gal(b1-4)GlcNAc(b1-2)Man(a1-3)[Gal(b1-4)GlcNAc(b1-3)Gal(b1-4)GlcNAc(b1-3)Gal(b1-4)GlcNAc(b1-3)Gal(b1-4)GlcNAc(b1-3)Gal(b1-4)GlcNAc(b1-3)Gal(b1-4)GlcNAc(b1-2)Man(a1-6)]Man(b1-4)GlcNAc(b1-4)GlcNAc
# Outline: as §1
# [14] = molecular target: Gal(b1-4)GlcNAc(b1-3)Gal(b1-4)GlcNAc(b1-3)GalNAc
# Outline: as §1
# [15] = molecular target: Gal(b1-4)GlcNAc(b1-3)Gal(b1-4)GlcNAc(b1-3)[Gal(b1-4)GlcNAc(b1-3)Gal(b1-4)GlcNAc(b1-6)]GalNAc
# Outline: as §1
# [16] = molecular target: Gal(b1-4)GlcNAc(b1-3)Gal(b1-4)GlcNAc(b1-6)[Gal(b1-3)]GalNAc
# Outline: as §1
# [17] = molecular target: Gal(b1-4)GlcNAc(b1-3)Gal(b1-4)[Fuc(a1-3)]GlcNAc(b1-3)Gal(b1-4)[Fuc(a1-3)]GlcNAc
# Outline: as §1
# [18] = molecular target: Gal(b1-4)GlcNAc(b1-3)GalNAc
# Outline: as §1
# [19] = molecular target: Gal(b1-4)GlcNAc(b1-3)[Fuc(a1-3)GlcNAc(b1-6)]Gal(b1-4)Glc
# Outline: as §1
# [20] = molecular target: Gal(b1-4)GlcNAc(b1-3)[Gal(b1-4)GlcNAc(b1-6)]Gal(b1-4)GlcNAc
# Outline: as §1
# [21] = molecular target: Gal(b1-4)GlcNAc(b1-3)[GlcNAc(b1-6)]Gal(b1-4)GlcNAc
# Outline: as §1
# [22] = molecular target: Gal(b1-4)GlcNAc(b1-6)Gal(b1-4)GlcNAc
# Outline: as §1
binder,measurement,setting,value
B1,glycan array binding signal (z-score),[1],0.358
same,glycan array binding signal (z-score),[2],0.216
same,glycan array binding signal (z-score),[3],-0.32
same,glycan array binding signal (z-score),[4],0.226
same,glycan array binding signal (z-score),[5],-0.102
same,glycan array binding signal (z-score),[6],1.19
same,glycan array binding signal (z-score),[7],0.744
same,glycan array binding signal (z-score),[8],2.57
same,glycan array binding signal (z-score),[9],0.782
same,glycan array binding signal (z-score),[10],0.111
same,glycan array binding signal (z-score),[11],-0.121
same,glycan array binding signal (z-score),[12],4.26
same,glycan array binding signal (z-score),[13],-0.149
same,glycan array binding signal (z-score),[14],-0.532
same,glycan array binding signal (z-score),[15],-0.265
same,glycan array binding signal (z-score),[16],-0.019
same,glycan array binding signal (z-score),[17],0.122
same,glycan array binding signal (z-score),[18],-0.523
same,glycan array binding signal (z-score),[19],-0.038
same,glycan array binding signal (z-score),[20],-0.334
same,glycan array binding signal (z-score),[21],-0.376
same,glycan array binding signal (z-score),[22],-0.237
